Consider 86 sequences from the supplement of paper PMC4166925.

± gives the standard deviation of the averaged measurements. In all, about 33,000 sequences were measured (“E-score (dimensionless, -0.5 to 0.5)”: median about -0.046, highest 2% from about 0.36 on). The list shows a part of the results.

The test system of this test is T1, SpTbr T-box DNA-binding domain (GST fusion).
T1 sequence: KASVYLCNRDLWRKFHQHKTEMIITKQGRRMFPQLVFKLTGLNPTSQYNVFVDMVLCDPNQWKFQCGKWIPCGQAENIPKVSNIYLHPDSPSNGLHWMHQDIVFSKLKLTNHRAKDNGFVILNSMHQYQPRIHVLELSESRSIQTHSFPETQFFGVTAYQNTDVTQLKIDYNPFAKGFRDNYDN
Kind of test: PBM E-score of 8-mer (E-score (dimensionless, -0.5 to 0.5)); Tbr is Tbrain of the sea star Patiria miniata (Pm) or the sea urchin Strongylocentrotus purpuratus (Sp); higher = stronger binding preference; most listed sequences are background and not binding sites. The settings on record: the construct has about 5 more residues each side. The essentials: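 Primer extension turned Universal Agilent oligonucleotide arrays double-stranded. They were incubated with 200 nM protein in PBS (pH 7.5); the protein was a GST-fused Tbr T-box DNA-binding domain expressed in BL21 E. coli at 20 °C and purified on glutathione. Every ungapped 8-mer was scored from the scanned, quantified probe intensities, and the Universal PBM Analysis Suite gave each an enrichment E-score averaged over duplicate arrays.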
For the sequence CCGACAGC, the “PBM E-score of 8-mer” value is 0.0618 ± 0.012.
For CCCTTTAG the value was -0.066 ± 0.044; for CTACTAGA, -0.274 ± 0.038.
For AAGACGAA the value was -0.262 ± 0.011; for TAATGCAA, -0.121 ± 0.037.
Take ATCTCTCC: the “PBM E-score of 8-mer” value was -0.186 ± 0.01.
For CAAATATG the value was -0.111 ± 0.089.
With CTAACCAG, the “PBM E-score of 8-mer” value is -0.0504 ± 0.022.
For GCCAACGC the value was 0.104 ± 0.027; for GATCAATC, -0.18 ± 0.049.
For AAACAGGA the value was -0.22 ± 0.036.
For CAGCGCTG the value was -0.0514 ± 0.065.
For the sequence CCGTAGGA, the “PBM E-score of 8-mer” value was -0.156 ± 0.057.
For AATGCGCC the value was 0.102 ± 0.0031; for GGAAGGCA, -0.0731 ± 0.02.
For CCATTTTA the value was -0.0241 ± 0.076; for CGTGGCCA, 0.0471 ± 0.044.
For AACTTTCT the value was -0.0316 ± 0.029; for ATTTCTCC, -0.0476 ± 0.041.
As to ATAGTAGC, the “PBM E-score of 8-mer” value is -0.0197 ± 0.089.
For GGACGGCA the value was -0.108 ± 0.04; for CGGATCGC, 0.065 ± 0.0046; for GTGTGACA, 0.457 ± 0.0047.
For AAGCTGAA the value was -0.151 ± 0.035.
For ACTTGCCG the value was 0.14 ± 0.053; for ATCGAGTG, 0.147 ± 0.068.
On to GGAGCACC, for which the “PBM E-score of 8-mer” value was -0.173 ± 0.18.
With AGTATGGC, the “PBM E-score of 8-mer” value was -0.0766 ± 0.024.
For CTGACAAC the value was 0.259 ± 0.018.
With AGGTTTCG, the “PBM E-score of 8-mer” value was -0.00807 ± 0.075.
For ATCAGGAC the value was -0.3 ± 0.086; for ATCGCCGC, -0.0342 ± 0.074.
As for GTCCGCGA, the “PBM E-score of 8-mer” value turned out to be 0.218 ± 0.077.
For AAGGTGCC the value was 0.364 ± 0.0073.
For GTTGATAA the value was 0.123 ± 0.022.
For GGCCTCCA the value was -0.283 ± 0.046; for ACGGCTTC, -0.0947 ± 0.026; for GAGAATGA, 0.066 ± 0.034.
On to CGACCACG, for which the “PBM E-score of 8-mer” value turned out to be 0.0943 ± 0.031.
In the case of CTGCAGCC, the “PBM E-score of 8-mer” value is -0.0833 ± 0.066.
For TCTTGTCA the value was 0.24 ± 0.014; for CGATAATA, 0.0189 ± 0.021.
For TAAATTTA the value was -0.119 ± 0.15; for AACGTCCG, -0.176 ± 0.067; for GATCACTA, -0.109 ± 0.12.
For AGTCCGCA the value was 0.00453 ± 0.0042; for CGTCCGTC, -0.0735 ± 0.0026; for GAGCGGTA, -0.181 ± 0.043.
For CTTCGTCC, the “PBM E-score of 8-mer” value was -0.0546 ± 0.022.
For ACAAAAGA the value was -0.223 ± 0.066; for ATGGGTAC, -0.193 ± 0.058; for TAAAGCGA, -0.0669 ± 0.031.
As for AACCATCT, the “PBM E-score of 8-mer” value was -0.148 ± 0.046.
As for AGTTTAGG, the “PBM E-score of 8-mer” value was -0.0808 ± 0.015.
For CACGATGC the value was 0.155 ± 0.037; for CGTTCGAA, -0.228 ± 0.011; for AATGCAGA, -0.212 ± 0.018.
For CCCCTCGC the value was -0.055 ± 0.024; for GGACTACA, -0.248 ± 0.022; for GCTGATAA, 0.00362 ± 0.015.
For CGGAAAAC the value was -0.234 ± 0.027.
As to CATAGATC, the “PBM E-score of 8-mer” value was -0.112 ± 0.042.
For TGGTGTAA the value was 0.292 ± 0.059; for CACTCCCA, 0.216 ± 0.035; for AAACTACG, -0.0644 ± 0.076.
For AACTAAAA the value was -0.0486 ± 0.07; for AACGTATA, -0.0511 ± 0.11.
Consider CGCATGAG, for which the “PBM E-score of 8-mer” value is -0.0159 ± 0.056.
For ATTACAAT the value was -0.17 ± 0.059.
With ATTCGTCG, the “PBM E-score of 8-mer” value stood at 0.133 ± 0.016.
For ATGGCTGG the value was -0.138 ± 0.012; for ACATCCGT, 0.112 ± 0.015.
For CCGGGGTC the value was -0.116 ± 0.035; for ATCAAGGC, -0.207 ± 0.0082; for ACGCAACA, 0.121 ± 0.024.
For GATCACCA the value was 0.112 ± 0.033; for CTCAGCAC, 0.171 ± 0.0069.
For the sequence CACCAGCA, the “PBM E-score of 8-mer” value stood at 0.162 ± 0.062.
For AAACGGCC the value was -0.232 ± 0.024; for CGGGTTGA, -0.02353 ± 0.00017; for CCTGGAAA, -0.207 ± 0.089.
For GTGGAGAA the value was 0.0416 ± 0.068; for TACGCGTA, 0.177 ± 0.034.
With CCTTCGCA, the “PBM E-score of 8-mer” value stood at 0.3329 ± 0.002.
For GTTCCCTA the value was -0.277 ± 0.018; for ACTACGAA, -0.0684 ± 0.063.
